{"source": "patent US4416899A", "about": "“Antibiotic BMG162-aF2, a process for production thereof, and antitumor drug containing said new antibiotic as active ingredient” (priority 1980, dated 1983)", "system": "Bacillus anthracis", "experiment": "microbe, parasite or virus in culture", "type": "cell-based", "conditions": "read-out: Minimum inhibitory concentration", "data": [{"smiles": "N=C(N)NCCCCC(O)CC(=O)NC(O)C(=O)NCCCCNCCCN", "note": "(stereo not shown) [BMG162-aF2]", "values": [{"measurement": "MIC", "value": 25, "unit": "µg/mL"}]}]}
